Experimental data reported in PMC4336329 (PLoS ONE, 2015).
Out of some 310,000 compounds screened, about 14,000 (4.5%) showed an effect of 50% or more. Effects have a minus sign here. This is one part of the list.

target: human ether-à-go-go-related gene (hERG) potassium channel (human, UniProt Q12809); assay: primary screen, population patch clamp on CHO cells stably expressing hERG
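Note: peak tail current of the secondary pulse compared with the same well before compound.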

Sequence of human ether-à-go-go-related gene (hERG) potassium channel (Q12809 whole entry, looked up): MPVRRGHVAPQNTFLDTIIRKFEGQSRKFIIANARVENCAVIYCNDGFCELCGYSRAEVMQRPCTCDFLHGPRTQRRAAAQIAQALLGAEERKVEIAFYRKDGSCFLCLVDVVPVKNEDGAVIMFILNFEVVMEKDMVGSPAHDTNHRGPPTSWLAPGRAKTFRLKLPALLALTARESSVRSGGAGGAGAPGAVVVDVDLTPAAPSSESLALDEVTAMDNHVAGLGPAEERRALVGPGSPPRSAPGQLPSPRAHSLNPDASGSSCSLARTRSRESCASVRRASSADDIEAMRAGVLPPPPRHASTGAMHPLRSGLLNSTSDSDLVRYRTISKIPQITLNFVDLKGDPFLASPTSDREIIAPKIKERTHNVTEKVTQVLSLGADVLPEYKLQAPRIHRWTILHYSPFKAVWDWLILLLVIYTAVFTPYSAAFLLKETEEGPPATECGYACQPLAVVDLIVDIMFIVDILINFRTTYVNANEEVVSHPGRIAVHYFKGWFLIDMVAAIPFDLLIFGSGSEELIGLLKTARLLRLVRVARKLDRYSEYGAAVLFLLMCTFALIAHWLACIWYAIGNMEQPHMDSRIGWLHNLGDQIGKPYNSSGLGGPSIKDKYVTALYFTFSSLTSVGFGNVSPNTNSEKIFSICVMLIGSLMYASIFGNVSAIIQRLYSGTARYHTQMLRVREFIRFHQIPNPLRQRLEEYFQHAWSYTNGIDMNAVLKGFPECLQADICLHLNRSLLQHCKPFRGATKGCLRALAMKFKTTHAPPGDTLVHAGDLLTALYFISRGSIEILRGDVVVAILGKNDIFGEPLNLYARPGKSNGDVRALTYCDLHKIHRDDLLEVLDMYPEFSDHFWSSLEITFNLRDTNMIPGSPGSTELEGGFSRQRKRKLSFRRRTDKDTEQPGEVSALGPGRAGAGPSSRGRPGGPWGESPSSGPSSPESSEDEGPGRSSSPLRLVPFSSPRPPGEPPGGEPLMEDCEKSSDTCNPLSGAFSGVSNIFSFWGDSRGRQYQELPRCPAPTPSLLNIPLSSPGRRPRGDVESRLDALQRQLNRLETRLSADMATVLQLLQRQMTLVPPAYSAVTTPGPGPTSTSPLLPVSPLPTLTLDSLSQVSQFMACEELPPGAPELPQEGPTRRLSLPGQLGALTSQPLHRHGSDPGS

| Structure (SMILES) | hERG current change (%, negative = inhibition) at 10uM |
| --- | --- |
| Cn1c(Cc2ccccc2)nnc1SCCC(=O)Nc1ccccc1 | -0.0706% |
| CN1/C(=C/C(=O)CSc2ccccc2C(=O)O)C(C)(C)c2ccccc21 | 8.23% |
| O=C(NC1CCCC1)C(Cc1ccccc1)n1cccc1 (centres unmarked) | 0.725% |
| COc1cccc(NC(=O)CN(C)C(=O)c2cc(-c3ccco3)nc3ccccc23)c1 | -21.8% |
| CC(=O)NS(=O)(=O)c1ccc(NC(=O)CN2C(=O)C3C4C=CC(C4)C3C2=O)cc1 (centres unmarked) | 7.3% |
| COc1cccc(NC(=O)CC2Oc3ccccc3NC2=O)c1 (centres unmarked) | 9.38% |
| CO[C@@]1(NC(=O)C2SC(=C(C(N)=O)C(=O)O)S2)C(=O)N2C(C(=O)O)=C(CSc3nnnn3C)CS[C@@H]21 (some centres unmarked) | 13.6% |
| O=C(OCc1nc2scc(-c3ccccc3)c2c(=O)[nH]1)c1cc([N+](=O)[O-])ccc1Cl | 12.7% |
| O=C(c1ccc(COc2ccccc2Br)o1)N1N=C(C(F)F)CC1(O)C(F)F (centres unmarked) | 8.69% |
| O=C(OCC(=O)N1CCCc2ccccc21)c1cccc(S(=O)(=O)N2CCc3ccccc32)c1 | -12.4% |
| Cc1ccc(NC(=O)CCn2cccc2)cc1C | 19% |
| Cc1ccccc1OCC(=O)N(Cc1nc(-c2ccccc2)no1)C(C)C | -15% |
| C[C@H](NC(=O)c1ccccc1Cl)C(=O)OCC(=O)NNC(=O)c1cccs1 | 3.67% |
| Nc1nc(SCC(=O)Nc2ccc(OC(F)(F)F)cc2)[nH]c(=O)c1NC(=O)c1ccc(Br)o1 | 28.2% |
| N#CC1=C(C2CC2)CC(c2ccccc2)C(C#N)=C1N (centres unmarked) | -4.32% |
| COc1ccc(C(C)=O)cc1CC(C(=O)c1ccc(C)c(C)c1)N(C)C (centres unmarked) | -1.98% |
| COc1ccc(CCn2c(=N)c(C(=O)NCc3ccco3)cc3c(=O)n4cccc(C)c4nc32)cc1 | -75.6% |
| NS(=O)(=O)c1ccc(NC(=S)Nc2cc(Cl)c(Cl)cc2Cl)cc1 | 29.9% |
| O=C(NCc1ccccc1)c1cccc(NC(=O)c2ccco2)c1 | 2.1% |
| O=C(COc1ccc([N+](=O)[O-])cc1)Nc1ccc2c(c1)OCO2 | -1.79% |
| COc1ccc(NC(=O)C2CCC(N3C(=O)C4C5C=CC(C5)C4C3=O)CC2)cc1 (centres unmarked) | -10.3% |
| Cc1[nH]nc2ncc(C(=O)c3ccccc3O)cc12 | 8.54% |
| CCCC(=O)Nc1ccc(C(=O)n2ccc(C)n2)cc1 | 4.49% |
